# Results reported in the supplement of paper PMC10037445.
# Values joined by “and” are separate entries in the source; they are usually repeats but may differ in a detail not shown here. Equal entries are not always repeated. Whole data set: some 2,900 compounds, median “NF-kB SEAP reporter activity, fold change vs agonist alone” near 0.99, cut for the highest 2% near 2.6. Some of the results follow.
# Key:
# RAW-Dual [1] = assay: NF-kB SEAP reporter activity, fold change vs agonist alone; higher = enhanced NF-kB activity
# Outline: (§1)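 RAW-Dual macrophages (50,000 cells/well in DMEM, 384-well plates) received 50 nL of library stock by pin tool, then a PRR agonist 1 h later, and were kept at 37 °C, 5% CO2. After 20 hours, supernatant was read for IRF by QuantiLuc luminescence and for NF-κB by QuantiBlue absorbance at 620 nm. Reporter activity is fold change over agonist-alone wells. Cytotoxic wells had IncuCyte confluency below 70% of agonist controls in both mask sets.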
# RAW-Dual [2] = assay: NF-kB SEAP reporter activity, fold change vs agonist alone; cytotoxicity flag (confluency mask): not cytotoxic; higher = enhanced NF-kB activity
# Outline: as §1
# RAW-Dual [3] = assay: NF-kB SEAP reporter activity, fold change vs agonist alone; cytotoxicity flag (confluency mask): cytotoxic (confluency <70% of control); higher = enhanced NF-kB activity
# Outline: as §1
# [4] = library stock concentration (final ~1000-fold dilution): 10 mM, cytotoxicity flag (confluency mask): not cytotoxic, agonist: Imiquimod (TLR7) […]
# [5] = library stock concentration (final ~1000-fold dilution): 10 mM, cytotoxicity flag (confluency mask): not cytotoxic, agonist: MPLA (TLR4) […]
# [6] = agonist: ODN 1826 (TLR9) 0.5 ug/mL
# [7] = agonist: Pam2CSK4 (TLR2/6) 0.1 ug/mL
# [8] = agonist: Pam3CSK4 (TLR2/1) 0.1 ug/mL
# [9] = library stock concentration (final ~1000-fold dilution): 10 mM, cytotoxicity flag (confluency mask): cytotoxic (confluency <70% of control), agonist: Imiquimod (TLR7) […]
# [10] = library stock concentration (final ~1000-fold dilution): 10 mM, cytotoxicity flag (confluency mask): cytotoxic (confluency <70% of control), agonist: MPLA (TLR4) […]
smiles,measurement,setting,value
COc1ccccc1OCC(O)CN1CCN(CC(=O)Nc2c(C)cccc2C)CC1 (stereo unspecified),NF-kB SEAP reporter activity,RAW-Dual [1]; [4],0.877
same,NF-kB SEAP reporter activity,RAW-Dual [1]; [5],0.855
COc1ccccc1OCC(O)CN1CCN(CC(=O)Nc2c(C)cccc2C)CC1 (stereo unspecified) (library stock concentration (final ~1000-fold dilution): 10 mM),NF-kB SEAP reporter activity,RAW-Dual [2]; agonist: LPS (TLR4) 0.1 ug/mL,1.09
same,NF-kB SEAP reporter activity,RAW-Dual [2]; [6],0.987
same,NF-kB SEAP reporter activity,RAW-Dual [2]; [7],1.04
same,NF-kB SEAP reporter activity,RAW-Dual [2]; [8],1.17
CCCNCC(O)COc1ccccc1C(=O)CCc1ccccc1 (stereo unspecified),NF-kB SEAP reporter activity,RAW-Dual [1]; [4],1.3
same,NF-kB SEAP reporter activity,RAW-Dual [1]; [5],1.21
CCCNCC(O)COc1ccccc1C(=O)CCc1ccccc1 (stereo unspecified) (library stock concentration (final ~1000-fold dilution): 10 mM),NF-kB SEAP reporter activity,RAW-Dual [2]; agonist: LPS (TLR4) 0.1 ug/mL,1.07
same,NF-kB SEAP reporter activity,RAW-Dual [2]; [6],0.715
same,NF-kB SEAP reporter activity,RAW-Dual [2]; [7],0.845
same,NF-kB SEAP reporter activity,RAW-Dual [2]; [8],1.1
CCNC1=NC2C(OC(CO)C(O)C2O)S1 (stereo unspecified) (library stock concentration (final ~1000-fold dilution): 10 mM),NF-kB SEAP reporter activity,RAW-Dual [2]; agonist: LPS (TLR4) 0.1 ug/mL,1.15
same,NF-kB SEAP reporter activity,RAW-Dual [2]; [6],1.17
same,NF-kB SEAP reporter activity,RAW-Dual [2]; [7],1.04
same,NF-kB SEAP reporter activity,RAW-Dual [2]; [8],1.5
CCNC1=NC2C(OC(CO)C(O)C2O)S1 (stereo unspecified),NF-kB SEAP reporter activity,RAW-Dual [1]; [4],1
same,NF-kB SEAP reporter activity,RAW-Dual [1]; [5],1.17
CC/C(=C(\c1ccccc1)c1ccc(OCCN(C)C)cc1)c1ccccc1.O=C(O)CC(O)(CC(=O)O)C(=O)O (library stock concentration (final ~1000-fold dilution): 10 mM),NF-kB SEAP reporter activity,RAW-Dual [3]; agonist: LPS (TLR4) 0.1 ug/mL,0.402
same,NF-kB SEAP reporter activity,RAW-Dual [3]; [6],0.692
same,NF-kB SEAP reporter activity,RAW-Dual [3]; [7],0.294
same,NF-kB SEAP reporter activity,RAW-Dual [3]; [8],0.69
CC/C(=C(\c1ccccc1)c1ccc(OCCN(C)C)cc1)c1ccccc1.O=C(O)CC(O)(CC(=O)O)C(=O)O,NF-kB SEAP reporter activity,RAW-Dual [1]; [9],1.37
same,NF-kB SEAP reporter activity,RAW-Dual [1]; [10],1.38
CCn1cc(-c2cccc(C(F)(F)F)c2)c2sc(C(=N)NC3CCS(=O)(=O)CC3)cc2c1=O,NF-kB SEAP reporter activity,RAW-Dual [1]; [9],1.33
same,NF-kB SEAP reporter activity,RAW-Dual [1]; [10],2.16
CCn1cc(-c2cccc(C(F)(F)F)c2)c2sc(C(=N)NC3CCS(=O)(=O)CC3)cc2c1=O (library stock concentration (final ~1000-fold dilution): 10 mM),NF-kB SEAP reporter activity,RAW-Dual [3]; agonist: LPS (TLR4) 0.1 ug/mL,3.13
same,NF-kB SEAP reporter activity,RAW-Dual [3]; [6],0.721
same,NF-kB SEAP reporter activity,RAW-Dual [3]; [7],1.15
same,NF-kB SEAP reporter activity,RAW-Dual [3]; [8],1.12
Cn1c(=O)cc(N2CCCC(N)C2)n(Cc2ccccc2C#N)c1=O (stereo unspecified) (library stock concentration (final ~1000-fold dilution): 10 mM),NF-kB SEAP reporter activity,RAW-Dual [2]; agonist: LPS (TLR4) 0.1 ug/mL,1.04 and 1.31
same,NF-kB SEAP reporter activity,RAW-Dual [2]; [6],0.953 and 1.01
same,NF-kB SEAP reporter activity,RAW-Dual [2]; [7],1.16 and 1.1
same,NF-kB SEAP reporter activity,RAW-Dual [2]; [8],0.92 and 1.24
Cn1c(=O)cc(N2CCCC(N)C2)n(Cc2ccccc2C#N)c1=O (stereo unspecified),NF-kB SEAP reporter activity,RAW-Dual [1]; [4],1.08
CC(C)c1c(C(=O)Nc2ccccc2)c(-c2ccccc2)c(-c2ccc(F)cc2)n1CCC(O)CC(O)CC(=O)O (stereo unspecified) (library stock concentration (final ~1000-fold dilution): 10 mM),NF-kB SEAP reporter activity,RAW-Dual [2]; agonist: LPS (TLR4) 0.1 ug/mL,2.93
Cc1ccccc1C(OCCN(C)C)c1ccccc1.O=C(O)CC(O)(CC(=O)O)C(=O)O (stereo unspecified) (library stock concentration (final ~1000-fold dilution): 10 mM),NF-kB SEAP reporter activity,RAW-Dual [2]; agonist: LPS (TLR4) 0.1 ug/mL,1.42
same,NF-kB SEAP reporter activity,RAW-Dual [2]; [6],0.679
same,NF-kB SEAP reporter activity,RAW-Dual [2]; [7],0.926
same,NF-kB SEAP reporter activity,RAW-Dual [2]; [8],1.17
Cc1ccccc1C(OCCN(C)C)c1ccccc1.O=C(O)CC(O)(CC(=O)O)C(=O)O (stereo unspecified),NF-kB SEAP reporter activity,RAW-Dual [1]; [4],1.41
same,NF-kB SEAP reporter activity,RAW-Dual [1]; [5],1.16
O=C(O)C=Cc1ccc(Cn2ccnc2)cc1 (library stock concentration (final ~1000-fold dilution): 10 mM water),NF-kB SEAP reporter activity,RAW-Dual [2]; agonist: LPS (TLR4) 0.1 ug/mL,1.17
same,NF-kB SEAP reporter activity,RAW-Dual [2]; [6],1.14
same,NF-kB SEAP reporter activity,RAW-Dual [2]; [7],1.11
same,NF-kB SEAP reporter activity,RAW-Dual [2]; [8],1.03
O=C(O)C=Cc1ccc(Cn2ccnc2)cc1,NF-kB SEAP reporter activity,"RAW-Dual [1]; library stock concentration (final ~1000-fold dilution): 10 mM water, cytotoxicity flag (confluency mask): not cytotoxic, agonist: MPLA (TLR4) […]",1.08
CC(=O)Nc1nc(C)c(-c2ccc(Cl)c(S(=O)(=O)NCCO)c2)s1 (library stock concentration (final ~1000-fold dilution): 10 mM),NF-kB SEAP reporter activity,RAW-Dual [2]; agonist: LPS (TLR4) 0.1 ug/mL,1.28
same,NF-kB SEAP reporter activity,RAW-Dual [2]; [6],0.966
same,NF-kB SEAP reporter activity,RAW-Dual [2]; [7],1.17
same,NF-kB SEAP reporter activity,RAW-Dual [2]; [8],0.961
CC(=O)Nc1nc(C)c(-c2ccc(Cl)c(S(=O)(=O)NCCO)c2)s1,NF-kB SEAP reporter activity,RAW-Dual [1]; [4],0.591
same,NF-kB SEAP reporter activity,RAW-Dual [1]; [5],1.4
Cl.OC(c1cc(C(F)(F)F)nc2c(C(F)(F)F)cccc12)C1CCCCN1 (stereo unspecified) (library stock concentration (final ~1000-fold dilution): 10 mM),NF-kB SEAP reporter activity,RAW-Dual [3]; agonist: LPS (TLR4) 0.1 ug/mL,1.77
same,NF-kB SEAP reporter activity,RAW-Dual [3]; [6],0.91
same,NF-kB SEAP reporter activity,RAW-Dual [3]; [7],0.367
same,NF-kB SEAP reporter activity,RAW-Dual [3]; [8],0.47
Cl.OC(c1cc(C(F)(F)F)nc2c(C(F)(F)F)cccc12)C1CCCCN1 (stereo unspecified),NF-kB SEAP reporter activity,RAW-Dual [1]; [9],1.59
same,NF-kB SEAP reporter activity,RAW-Dual [1]; [10],1.64
CCC(Nc1ncnc2[nH]cnc12)c1nc2cccc(F)c2c(=O)n1-c1ccccc1 (stereo unspecified) (library stock concentration (final ~1000-fold dilution): 10 mM),NF-kB SEAP reporter activity,RAW-Dual [2]; agonist: LPS (TLR4) 0.1 ug/mL,1.27
same,NF-kB SEAP reporter activity,RAW-Dual [2]; [6],1.08
same,NF-kB SEAP reporter activity,RAW-Dual [2]; [7],0.969
same,NF-kB SEAP reporter activity,RAW-Dual [2]; [8],0.843
CCC(Nc1ncnc2[nH]cnc12)c1nc2cccc(F)c2c(=O)n1-c1ccccc1 (stereo unspecified),NF-kB SEAP reporter activity,RAW-Dual [1]; [4],0.75
same,NF-kB SEAP reporter activity,RAW-Dual [1]; [5],0.952
O=c1c(O)c(-c2ccc(O)cc2O)oc2cc(O)cc(O)c12,NF-kB SEAP reporter activity,RAW-Dual [1]; [4],0.865
same,NF-kB SEAP reporter activity,RAW-Dual [1]; [5],1.34
O=c1c(O)c(-c2ccc(O)cc2O)oc2cc(O)cc(O)c12 (library stock concentration (final ~1000-fold dilution): 10 mM),NF-kB SEAP reporter activity,RAW-Dual [2]; agonist: LPS (TLR4) 0.1 ug/mL,1.18
same,NF-kB SEAP reporter activity,RAW-Dual [2]; [6],0.643
same,NF-kB SEAP reporter activity,RAW-Dual [2]; [7],0.838
same,NF-kB SEAP reporter activity,RAW-Dual [2]; [8],0.844
